From the supplement of paper PMC12645437, “Orthogonal IMiD-Degron Pairs Induce Selective Protein Degradation in Cells” (ACS Chemical Biology, 2025)
The list shows a part of the results.

What follows are sequences tested against no compound (DMSO) (assay: log2 fold change of degron read counts, EGFP-low vs EGFP+ sorted cells; higher = lower degron-EGFP level without compound (poor expression or instability)). Settings: compound: DMSO control; 18 h.
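Further: jurkat cells carrying a lentiviral library of mutant zinc finger degrons fused to EGFP plus mCherry, mCherry+ cells FACS sorted, degron abundance counted by next-generation sequencing.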

Sequence | log2 fold change of degron read counts
FACNQCGRCFTQKGNLLRHIKL | -0.212
FYCEICGRDFTQKGNLLRHIKL | -1.42
FACEVCGAVFTQKGNLLRHIKL | -1.54
LKCNQCGFICTQKGNLLRHIKL | -0.327
FGCPQCGAEFTQKGNLLRHIKL | -4.69
FGCPVCGASFTQKGNLLRHIKL | -0.177
FDCPQCGANFTQKGNLLRHIKL | -2.64
FFCDICGANFTQKGNLLRHIKL | -0.875
FHCDVCGAGFTQKGNLLRHIKL | -1.2
FFCEVCGATFTQKGNLLRHIKL | -1.49
FVCNVCGACFTQKGNLLRHIKL | -0.651
FGCPICGRTFTQKGNLLRHIKL | -0.352
FVCNQCGAKFTQKGNLLRHIKL | -0.684
FHCPQCGAWFTQKGNLLRHIKL | 0.203
FNCPQCGANFTQKGNLLRHIKL | -1.3
FMCSVCGHMFTQKGNLLRHIKL | 0.361
LHCNQCGFFCTQKGNLLRHIKL | 1.78
FWCNQCGHAFTQKGNLLRHIKL | 0.583
FHCDQCGAQFTQKGNLLRHIKL | -1.2
FNCEICGAYFTQKGNLLRHIKL | -0.595
FYCPQCGAKFTQKGNLLRHIKL | -0.295
LLCPICGFQCTQKGNLLRHIKL | 0.772
FVCEICGHIFTQKGNLLRHIKL | -0.645
FNCDVCGAQFTQKGNLLRHIKL | -1.94
FYCNQCGHEFTQKGNLLRHIKL | -0.541

Sequence | log2 fold change of degron read counts
FKCDICGAVFTQKGNLLRHIKL | -1.58
FKCPICGHSFTQKGNLLRHIKL | -0.795
LRCNQCGFRCTQKGNLLRHIKL | 1.34
FDCNQCGHRFTQKGNLLRHIKL | 0.376
FACEVCGAMFTQKGNLLRHIKL | -0.269
LGCNQCGFCCTQKGNLLRHIKL | 0.862
FLCSVCGHMFTQKGNLLRHIKL | 0.481
LDCNQCGFSCTQKGNLLRHIKL | -0.117
FECNVCGAMFTQKGNLLRHIKL | -1.2
FYCPICGRLFTQKGNLLRHIKL | -1.8
FQCEVCGAAFTQKGNLLRHIKL | -1.7
FKCNQCGRWFTQKGNLLRHIKL | 0.426
FMCEICGHCFTQKGNLLRHIKL | -1.93
FECEICGRQFTQKGNLLRHIKL | -1.37
FSCNICGANFTQKGNLLRHIKL | -0.931
FSCPICGRDFTQKGNLLRHIKL | -0.689
FSCDQCGAFFTQKGNLLRHIKL | -0.866
FMCEVCGAYFTQKGNLLRHIKL | -1.09
FTCNVCGARFTQKGNLLRHIKL | -1.02
FRCSVCGHPFTQKGNLLRHIKL | 0.325
LQCEICGFQCTQKGNLLRHIKL | -0.278
FYCPICGAPFTQKGNLLRHIKL | 0.861
LKCEICGFVCTQKGNLLRHIKL | -0.596
FNCPQCGAGFTQKGNLLRHIKL | -1.71
FNCDICGALFTQKGNLLRHIKL | -0.704
